The whole screen tested about 360,000 compounds, of which about 7,500 (2.1%) were called active. This list was built around the results that the source calls inconclusive (neither active nor inactive); the mix of calls is not that of the screen. Calls follow the shape of the dose curve; as a rule, active = well fitted cell-killing curve with a large enough effect; inconclusive = small, poorly fitted or top-dose-only effect, or effect the other way, or another doubt; inactive = no such curve, though single readings can be large or run the other way. Potencies of inconclusive entries are left out as doubtful fits.
assay: qHTS for induction of synthetic lethality in tumor cells producing 2HG: qHTS for the HT-1080-IDH1KD cell line; conditions: HT-1080 IDH1 knockdown viability, ATP luminescence, 48 h; activity, negative = toxicity: at 46.1 µM (top of the series) unless noted;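 as to activity, negative = toxicity: 0% = DMSO wells and -100% = cell-free medium wells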
Summary of the method: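 Cytotoxicity counter-line: IDH1KD HT-1080, 48 h, CellTiter-Glo. Curves classed by r2, magnitude and activity.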
Potency is read from the fitted curve at half-maximal effect; tags tell the direction and shape of the fitted curve.

Row | SMILES | Potency | activity, negative = toxicity
1 | CN(C)c1ccc(/C=C/C(=O)c2ccc(O)cc2)cc1[N+](=O)[O-] | inconclusive [cytotoxic, single point] | –
2 | COc1cccc(C(=O)c2sc(NC(C)C)nc2N)c1 | inconclusive [cytotoxic, single point] | –
3 | COc1cc2c(cc1NC(=O)C(C)NCc1ccccc1)oc1ccccc12 (centres undefined) | inconclusive [cytotoxic, single point] | –
4 | CC1(C(=O)NCc2ccccc2Br)CCN1Cc1ccccc1OC(F)F (centres undefined) | inconclusive [cytotoxic, single point] | –
5 | Nc1ccc(Cn2ccc3c4c(N)nc(N)nc4ccc32)cc1 | active: 0.0326 µM | –
6 | Cc1ccc(C)c(N2N=C(C(=O)Nc3ccccc3N3CCCC3)CCC2=O)c1 | inconclusive [cytotoxic, partial curve] | –
7 | O=c1cc(Nc2ccc3c(c2)OCCO3)[nH]c(=O)n1C1CCCCC1 | inconclusive [cytotoxic, single point] | –
8 | CCN(CC)CCn1c(=N)n(CC(=O)c2ccc(C)cc2)c2ccccc21 | inconclusive [cytotoxic, single point] | –
9 | COc1ccc(N/C=C\C(=O)c2ccc3c(c2)OCO3)cc1 | inconclusive [cytotoxic, single point] | –
10 | CCOc1ccc(C(C(=O)NC2CCCC2)N(CCCO)C(=O)c2ccc(-c3ccccc3)[nH]2)cc1 (centres undefined) | inconclusive [cytotoxic, single point] | –
11 | O=C(O)CCCN=Cc1c(O)c2ccccc2oc1=O | inconclusive [cytotoxic, single point] | –
12 | N#C/C(=C/c1ccc(O)c(O)c1)C(=O)NCc1ccc(Cl)cc1 | inconclusive [cytotoxic, single point] | –
13 | COc1ccc(-c2cc3nc(NCCOc4ccccc4)ccn3n2)cc1 | inconclusive [cytotoxic, single point] | –
14 | CCCN(CCC)CCCNc1ccc(C(=O)Nc2cccc(OC)c2)cc1[N+](=O)[O-] | active: 20.6 µM | –
15 | CN(C)CCN(C(=O)c1cccc2ccccc12)c1nc2cc3c(cc2s1)OCO3 | inconclusive [cytotoxic, single point] | –
16 | CC(C)C(=O)N1CCN(c2ccc([N+](=O)[O-])cc2Cl)CC1 | – | inactive: 7.72%
17 | c1ccc(-c2nc(-c3ccccn3)nc(-c3ccccn3)n2)nc1 | inconclusive [cytotoxic, single point] | –
18 | O=C(NCC(c1cccs1)N1CCOCC1)c1cc(F)cc(F)c1 (centres undefined) | active: 5.8 µM | –
19 | O=C(NCCCN1CCCC1)c1cc2c(Cl)nc3ccccc3c2s1 | active: 20.6 µM | –
20 | CCC1(c2ccccc2)NC(=O)N(CC(=O)N(C)CC(=O)Nc2cccc(OC)c2)C1=O (centres undefined) | inconclusive [cytotoxic, single point] | –
21 | O=C(OCc1c(-c2ccccc2)ncc2ccccc12)c1ccccc1C(F)(F)F | inconclusive [cytotoxic, partial curve, poor fit] | –
22 | CC(=O)Nc1cccc(OCC(=O)/C=C2\N(C)c3ccccc3C2(C)C)c1 | inconclusive [cytotoxic, partial curve] | –
23 | CC1CCN(S(=O)(=O)c2ccc(NC(=O)c3ccccc3F)cc2)CC1 | – | inactive: -51.9%

Row | SMILES | Potency | activity, negative = toxicity
24 | CCOc1ccc2nc(-c3ccccc3)[nH]c2c1 | active: 9.2 µM | –
25 | COC(=O)c1ccc(COc2ccccc2/C=N/NS(=O)(=O)c2ccccc2)cc1 | inconclusive [cytotoxic, partial curve, poor fit] | –
26 | COc1ccc(OCCN2CCC(C(=O)NC(c3ccc(Cl)cc3)c3ncccc3C)CC2)cc1 (centres undefined) | active: 20.6 µM | –
27 | COc1ccc(-n2c(C)cc(/C=N/Nc3nnc(C)n3N)c2C)cc1 | inconclusive [cytotoxic, single point] | –
28 | OCCN1CCN(c2nc(-c3ccccc3)nc3c2oc2ccccc23)CC1 | inconclusive [cytotoxic, single point] | –
29 | FC(F)(F)c1ccc(C2[C@H]3CN(Cc4cccnc4)[C@H](c4ccccc4)C34CC2(c2cccnc2)C4)cc1 (some centres undefined) | inconclusive [cytotoxic, single point] | –
30 | Cc1noc(C)c1COC(=O)c1ccc(F)c(S(=O)(=O)N2CCCCC2)c1 | inconclusive [cytotoxic, single point] | –
31 | O=C1c2cc(O)c(O)cc2OC(c2ccc(O)c(O)c2)C1O (centres undefined) | – | inactive: 27%
32 | O=C1CN(C(=O)c2ccc(Br)o2)C(c2ccc(F)cc2)c2cc(F)ccc2N1 (centres undefined) | inconclusive [cytotoxic, single point] | –
33 | COCC(=O)Nc1ccc2c(c1)[C@@H]1C[C@H](CC(=O)OC)O[C@H](CO)[C@@H]1O2 | – | inactive: 4.11%
34 | CCOc1ccc(NC(=O)CCCNC(=O)Cn2cnc3sc(C)c(C)c3c2=O)cc1 | inconclusive [cytotoxic, single point] | –
35 | O=C(O)c1cnn(-c2ccccc2)c1C(F)(F)F | inconclusive [rising, partial curve] | –
36 | Cc1cccc2sc(NC(=O)CSCc3ccccc3)nc12 | inconclusive [cytotoxic, single point] | –
37 | CC(C)(C)CC(=O)NC(=S)N1CCCCCC1 | inconclusive [cytotoxic, single point] | –
38 | CCOc1ccc2ccccc2c1/C=N/NC(=O)CNC(=O)C(c1ccccc1)c1ccccc1 | inconclusive [cytotoxic, single point] | –
39 | Cc1sc2ncnc(SCc3ccco3)c2c1C | – | inactive: -5.98%
40 | CC1CCCN(S(=O)(=O)c2cc(C(=O)NCCc3ccc(S(N)(=O)=O)cc3)ccc2Cl)C1 (centres undefined) | – | inactive: -15.4%
41 | Cc1c(Cl)c(C(F)(F)F)nn1CC(=O)NCc1ccccc1 | inconclusive [cytotoxic, single point] | –
42 | O=C(c1nnsc1S(=O)(=O)c1ccc(Cl)cc1)N1CCOCC1 | inconclusive [cytotoxic, full curve] | –
43 | CN1CCCN(S(=O)(=O)c2ccccc2)c2nc3ccccc3nc21 | – | inactive: -7.18%
44 | O=CNc1cc(-c2ccsc2)cn2c(-c3ccccc3)cnc12 | inconclusive [cytotoxic, single point] | –
45 | CCN(CC)C(=O)c1cccc(-c2csc(C(C)(O)c3ccc(F)c(F)c3)n2)c1 (centres undefined) | inconclusive [cytotoxic, single point] | –
46 | CCn1nc(C)c(C2C(C#N)=C(N)OC3=C2C(=O)CC(C)(C)C3)c1C (centres undefined) | – | inactive: 0.823%

Row | SMILES | Potency | activity, negative = toxicity
47 | CNC[C@@H](CC1CCCCC1)NC[C@H](CC(C)C)NCCc1cccc(C(F)(F)F)c1 | inconclusive [cytotoxic, single point] | –
48 | CC(C)OC(=O)CSc1nnnn1-c1ccc2c(c1)OCCO2 | inconclusive [rising, single point] | –
49 | Cc1cccc(NCc2nc3ccccc3n2Cc2ccccc2)c1 | inconclusive [cytotoxic, single point] | –
50 | CCN(CC)S(=O)(=O)c1cccc(C(=O)NC2CCCCC2)c1 | inconclusive [cytotoxic, single point] | –
51 | Cc1ccc(F)c(S(=O)(=O)NC(=O)C2(C)CCN2C(=O)CC(c2ccccc2)c2ccccc2)c1 (centres undefined) | – | inactive: 11.8%
52 | COc1ccc(S(=O)(=O)N2CCOCC2)cc1NC(=O)c1cc2ccccc2o1 | – | inactive: -3.27%
53 | O=C(/C=C/c1ccccc1Cl)c1cccnc1 | inconclusive [cytotoxic, single point] | –
54 | Cc1cc(-n2c(C)cc(C(=O)CN3C(=O)C(=O)N(C)C3=O)c2C)no1 | – | inactive: -1.64%
55 | CC(C)(Sc1cc(C(C)(C)C)c(O)c(C(C)(C)C)c1)Sc1cc(C(C)(C)C)c(O)c(C(C)(C)C)c1 | – | inactive: 19.4%
56 | CNC(=O)OCc1cocc1COC(=O)NC | – | inactive: 19.2%
57 | CCn1c(SCC(=O)N/N=C/c2c[nH]c3ccccc23)nnc1-c1ccc(Cl)cc1 | inconclusive [cytotoxic, partial curve] | –
58 | CCOc1ccc2nc(SC3CC(=O)N(c4ccc(OC)cc4OC)C3=O)sc2c1 (centres undefined) | inconclusive [cytotoxic, single point] | –
59 | O=C(Nc1ccc(O)cc1)c1ccc(NC(=O)c2cccs2)cc1 | active: 23.1 µM | –
60 | CCOc1ccc(/C(O)=C2/C(=O)C(=O)N(CCCN3CCOCC3)C2c2ccc(C)cc2)cc1C (centres undefined) | – | inactive: 1.26%
61 | Cc1ccc(-c2cc(-c3ccco3)c3c(N)c(C(=O)NN)oc3n2)cc1 | inconclusive [cytotoxic, single point] | –
62 | CCOc1ccc(NC(=O)Cn2nnc(C(=O)NCc3ccco3)c2N)cc1 | inconclusive [cytotoxic, single point] | –
63 | CCOc1cccc(CN2CCCC(C(=O)Nc3cccc(-n4cccn4)c3)C2)c1 (centres undefined) | – | inactive: 0.693%
64 | Cc1ccc(-n2nc(C)c3c(C)cc(=O)[nH]c32)cc1 | inconclusive [cytotoxic, single point] | –
65 | Fc1ccc(-c2nc3c(-c4ccc(Cl)cc4)cnn3cc2CCN2CCOCC2)cc1 | inconclusive [cytotoxic, single point] | –
66 | O=C(CCc1nc2ccccc2c(=O)[nH]1)Nc1cc(C(F)(F)F)ccc1N1CCOCC1 | inconclusive [cytotoxic, partial curve] | –
67 | COc1ccc(-c2nnc(SCCC(=O)O)n2-c2ccccc2)cc1 | – | inactive: 29.2%
68 | C/C(=N\NC(=O)C(C)Oc1ccc([N+](=O)[O-])cc1)c1ccccn1 (centres undefined) | active: 2.24 µM | –
69 | COc1ccc(OCCN2CCC(C(=O)NC(c3ccc(F)cc3)c3ncccc3C)CC2)cc1 (centres undefined) | inconclusive [cytotoxic, single point] | –

— PubChem BioAssay AID686971 (National Center for Advancing Translational Sciences (NCATS), 2013)
